Source: the supplement of paper PMC7826260
Some of the results follow. Each Rep nickase domain was tested in vitro on the same pool of single strands for 1 h at 37 °C with 3 µM enzyme; only the middle of the 90-letter strands is printed. A value is the log2 ratio of uncut reads to the pool without enzyme; more negative means more cut, near 0 not cut, and no call is made. Counts are relative to all reads, so uncut sequences can rise above 0 when many others are cut.

Key:
Test in all cases: uncleaved DNA left, log2 of reads against the no-enzyme library (log2 ratio); higher = less cleavage (more negative = more Rep cleavage of the k-mer); sequences stand for … in CTCGTCCG…ACCGGAGA
[1] = system: T1, Rep nickase domain of Muscovy duck circovirus
T1 sequence (residues 1-111, tag not shown): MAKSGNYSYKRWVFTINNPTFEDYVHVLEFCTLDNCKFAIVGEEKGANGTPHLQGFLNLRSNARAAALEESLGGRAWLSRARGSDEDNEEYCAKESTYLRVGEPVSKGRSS
Procedure: (§1)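 A pool of 90-nt single-stranded DNAs with seven random bases just before the constant AC of the nick site (name = the seven bases) was cut by 3 µM recombinant His6-SUMO-tagged Rep nickase domain (300 nM DNA, 50 mM HEPES pH 8.0, 50 mM NaCl, 1 mM MnCl2, 1 h, 37 °C, three replicates). Uncut DNA was amplified and sequenced.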

[2] = system: T2, Rep nickase domain of banana bunchy top virus
T2 sequence (residues 1-94, tag not shown): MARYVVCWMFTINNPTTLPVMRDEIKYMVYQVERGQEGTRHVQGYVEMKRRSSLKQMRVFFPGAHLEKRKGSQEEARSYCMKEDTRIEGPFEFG
Procedure: as §1

[3] = system: T3, Rep nickase domain of cabbage leaf curl virus
T3 sequence (residues 1-116, tag not shown): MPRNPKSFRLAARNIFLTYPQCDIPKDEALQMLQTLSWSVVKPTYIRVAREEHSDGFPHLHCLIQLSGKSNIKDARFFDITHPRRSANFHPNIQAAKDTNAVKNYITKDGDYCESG
Procedure: as §1

[4] = system: T4, Rep nickase domain of chickpea chlorotic dwarf virus
T4 sequence (residues 1-124, tag not shown): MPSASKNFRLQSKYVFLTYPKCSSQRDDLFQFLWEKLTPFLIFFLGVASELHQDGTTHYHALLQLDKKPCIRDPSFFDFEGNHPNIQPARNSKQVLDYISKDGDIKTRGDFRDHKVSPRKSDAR
Procedure: as §1

[5] = system: T5, Rep nickase domain of faba bean necrotic yellows virus
T5 sequence (residues 1-98, tag not shown): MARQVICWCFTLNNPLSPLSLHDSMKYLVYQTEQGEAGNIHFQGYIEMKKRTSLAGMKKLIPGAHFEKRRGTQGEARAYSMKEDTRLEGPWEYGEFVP
Procedure: as §1

[6] = system: T6, Rep nickase domain of maize striate mosaic virus
T6 sequence (residues 1-117, tag not shown): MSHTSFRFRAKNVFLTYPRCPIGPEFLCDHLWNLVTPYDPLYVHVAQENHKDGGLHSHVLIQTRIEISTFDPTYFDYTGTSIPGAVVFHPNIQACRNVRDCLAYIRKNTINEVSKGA
Procedure: as §1

[7] = system: T7, Rep nickase domain of porcine circovirus 2
T7 sequence (residues 2-116, tag not shown): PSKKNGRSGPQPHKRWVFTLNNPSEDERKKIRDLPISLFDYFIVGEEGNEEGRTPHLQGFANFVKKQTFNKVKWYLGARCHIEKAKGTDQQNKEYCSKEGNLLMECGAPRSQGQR
Procedure: as §1

[8] = system: T8, Rep nickase domain of tomato golden mosaic virus
T8 sequence (residues 1-124, tag not shown): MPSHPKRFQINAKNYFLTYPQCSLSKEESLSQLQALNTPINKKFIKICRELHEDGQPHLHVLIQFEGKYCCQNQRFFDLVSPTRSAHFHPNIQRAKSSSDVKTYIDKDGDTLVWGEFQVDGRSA
Procedure: as §1

[9] = system: T9, Rep nickase domain of tomato yellow leaf curl virus
T9 sequence (residues 1-136, tag not shown): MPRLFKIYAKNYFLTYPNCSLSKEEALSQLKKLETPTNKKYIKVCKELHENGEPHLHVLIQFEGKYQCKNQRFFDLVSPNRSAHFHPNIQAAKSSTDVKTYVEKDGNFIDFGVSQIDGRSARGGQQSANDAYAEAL
Procedure: as §1

[10] = system: T10, Rep nickase domain of wheat dwarf virus
T10 sequence (residues 1-137, tag not shown): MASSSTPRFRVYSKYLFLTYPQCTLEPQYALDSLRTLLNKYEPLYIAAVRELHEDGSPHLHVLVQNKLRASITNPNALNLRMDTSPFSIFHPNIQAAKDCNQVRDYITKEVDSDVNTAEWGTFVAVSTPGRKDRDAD
Procedure: as §1

Sequence	uncleaved DNA left (log2) [1]	uncleaved DNA left (log2) [2]	uncleaved DNA left (log2) [3]	uncleaved DNA left (log2) [4]	uncleaved DNA left (log2) [5]	uncleaved DNA left (log2) [6]	uncleaved DNA left (log2) [7]	uncleaved DNA left (log2) [8]	uncleaved DNA left (log2) [9]	uncleaved DNA left (log2) [10]
TTCATCT	-0.00371	0.0405	0.168	-1.64	-0.0754	-0.302	-0.162	0.0234	0.0695	-0.0547
TCCCCAA	-0.127	-0.0365	0.044	-0.247	-0.0596	-0.451	-0.187	-0.104	-0.0934	-0.0444
AAAGCTA	0.0958	0.083	0.271	0.623	0.0276	1.21	0.106	0.206	-0.0889	0.094
TGCTAAT	-2.03	-0.0553	-0.0602	-0.674	-0.0333	-0.187	-3.4	-0.00369	0.117	-0.029
CGGGGCT	-0.0143	0.0519	0.755	1.58	-0.135	1.98	0.0892	0.0255	0.0335	0.0943
TCATTCA	-0.0886	0.0284	-0.102	-1.16	0.0653	-1.03	-0.154	-0.0425	0.0494	0.0287
CGTACCT	-0.059	0.115	-0.0483	-1.41	0.0792	0.0833	-0.724	-0.0631	0.0987	0.0906
CGTCAAC	0.0498	-0.061	0.000365	-0.792	-0.146	-0.164	-0.114	-0.0913	0.0611	0.0663
GTGTGAC	0.0337	0.162	0.587	1.3	-0.00909	2.06	0.193	0.268	0.149	0.216
AGTCGAG	0.0714	0.0511	-0.14	0.242	0.0945	-0.565	0.069	0.149	0.0897	0.119
AACAGTG	-0.0159	-0.0695	-0.784	-0.705	-0.0506	-1.21	0.177	-0.0608	0.0685	-0.12
TACGTAA	0.103	0.0146	-0.0871	-0.816	0.0715	-0.581	0.0994	-0.0121	0.0038	-0.0351
TAACGTA	-0.0383	-0.223	-1.57	-2.56	0.0129	-0.733	-0.197	-0.0776	-0.045	-0.923
CCAAACT	0.0624	0.0948	-0.164	-2.54	0.0358	-0.514	-0.016	-0.132	0.166	0.0911
AGGTTTA	-0.0299	0.0546	0.00791	-0.467	0.0247	0.388	-0.272	0.0312	0.0914	0.0348
GCAACTT	0.0497	0.105	0.0984	-1.33	0.145	0.337	-0.0275	0.0614	0.000317	0.194
CATCTCT	-0.203	-0.14	-0.308	-2.73	-0.0794	-0.26	-0.437	-0.0918	-0.102	-0.164
CCATCAT	0.0173	0.0298	0.276	-0.335	-0.041	-0.369	-0.247	0.0289	0.044	0.0374
AAACGGT	-0.0421	-0.127	0.126	0.976	-0.0434	1.48	-0.0761	-0.0299	-0.183	-0.102
CATAGAA	-0.00636	-0.0754	-0.0323	-0.258	-0.0679	-0.95	0.0858	-0.0178	-0.0723	-0.12
CCCCTTT	0.0262	0.0222	-0.112	-1.97	0.0875	-0.516	-0.402	-0.0622	0.0193	0.00546
GGCGTAG	-0.0414	-0.0553	0.111	0.56	-0.0378	1.27	0.0867	0.0515	-0.0536	-0.112
TCTGTTA	-0.0223	-0.0629	0.151	-0.794	-0.0925	-0.0476	-0.178	-0.0244	0.023	0.0271
TACTTGA	-0.059	-0.0364	-0.0705	-0.816	0.0566	-0.638	-0.949	-0.0333	0.099	0.0282
GGAGAGT	0.184	0.191	0.928	1.81	0.0822	2.13	0.286	0.085	0.214	0.218
CACAGTG	0.212	0.0496	-0.767	-0.531	0.196	-0.91	0.18	0.25	0.165	0.0552
CCCAGGC	0.0448	0.157	0.106	0.237	-0.0447	-0.517	0.0474	0.108	0.0638	0.00595
ATGGACT	0.122	0.0975	0.2	1.38	0.0186	1.81	0.124	0.0238	0.0432	0.138
TAGTTGG	-0.0781	-0.104	-0.316	-0.329	0.00724	-0.873	-0.381	-0.109	-0.0263	-0.0562
TCCAGTG	0.0885	-0.105	-0.573	-0.777	-0.0148	-1.05	0.0794	-0.0347	0.0253	-0.24
